About 1,200 (0.29%) of roughly 410,000 compounds were called active. The inconclusive results got no clear call from the source; some entries with a clear call stand among them for comparison. Calls follow the shape of the dose curve; as a rule, active = well fitted activation curve with a large enough effect; inconclusive = small, poorly fitted or top-dose-only effect; inactive = flat fitted curve, though single readings scatter. A potency beside an inconclusive call is a rough fit, not a confirmed value.
assay: qHTS of Nrf2 Activators; conditions: AREc32 ARE-luciferase reporter (MCF7-derived line), luminescence, 24 h; series mostly up to 46.1 µM; also: nearly all actives have a fitted effect of over 65% in size
Outline: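 Reporter line AREc32 (ARE-Fluc), seeded overnight in OPTI-MEM with 5% FBS; compound pin-transferred, 24 hr at 37 deg C, 5% CO2; luminescent read-out.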
Potency is read from the fitted curve at half-maximal effect; tags tell the direction and shape of the fitted curve.

| Structure (SMILES) | Potency |
| --- | --- |
| COCCNC(=O)N1[C@H]2CC[C@@H]1C(C(=O)OC)=C(c1ccc(-c3ccccc3)c(F)c1)C2 | inactive |
| Nc1c(C(=O)NCc2ccco2)c2nc3ccccc3nc2n1CCN1CCOCC1 | inconclusive: 11.2 µM [activator, single point] |
| O=c1c2ccccc2nc(/C=C/c2ccc(F)cc2)n1-c1ccccc1O | inconclusive: 25.1 µM [activator, single point] |
| COC(=O)C1=C(c2cc3ccccc3s2)C[C@@H]2CC[C@H]1N2C(=O)NC1CC1 | inactive |
| CN1C(=O)C(=Cc2ccccc2OCc2ccccc2Cl)C(=O)N(C)C1=O | inactive |
| C#C[C@]1(O)CCC2C3C(=O)C=C4C(Cl)=CCC[C@]4(C)C3CC[C@@]21C (stereo not given in full) | inconclusive: 22.4 µM [activator, partial curve, poor fit] |
| COC1C(O)C(C)OC(OC2CCC3(C)C(CCC4C3C(O)CC3(C)C(C5=CC(=O)OC5)CCC43O)C2)C1O (stereo not given) | inactive |
| COc1ccc(Sc2cnn(-c3ccccc3)c(=O)c2Cl)cc1 | inconclusive: 3.16 µM [activator, full curve, poor fit] |
| O=C(O)c1ccc(/C=C/c2nc3ccccc3c(=O)n2-c2ccc(Br)cc2)cc1 | inconclusive: 11.2 µM [activator, partial curve] |
| COc1cc(OC)cc(C(=O)Nc2nc(-c3nnn(-c4ccc(C)cc4)c3C)ns2)c1 | inconclusive: 35.5 µM [activator, partial curve, poor fit] |
| Cc1cc(NC(=O)CCl)no1 | inconclusive: 17.8 µM [activator, partial curve, poor fit] |
| O=C(COc1ccccc1)N1CCN(CC2CC=CCC2)CC1 (stereo not given) | inactive |
| CC(C)n1c(=O)c(C=Nc2cccc([N+](=O)[O-])c2)c(O)n(CCc2ccccc2)c1=O | active: 11.2 µM |
| CCN(CC)c1ccc(/C=N/c2sc3c(c2C#N)C2CCN3CC2)c(O)c1 | inactive |
| O=C(CCS(=O)(=O)c1ccccc1)Nc1nnc(-c2ccco2)o1 | inconclusive: 22.4 µM [activator, single point] |
| O=C(CN1CC=C(c2ccccc2)CC1)Nc1c(Cl)cccc1Cl | inactive |
| O=[N+]([O-])/C=C/c1c(Cl)cccc1Cl | active: 14.1 µM |
| O=c1c2ccccc2nc(/C=C/c2ccccc2O)n1-c1ccc(Br)cc1 | inconclusive: 11.2 µM [activator, partial curve, poor fit] |
| COC[C@H]1OC(=O)c2coc3c2[C@@]1(C)C1=C(C3=O)[C@@H]2CCC(=O)[C@@]2(C)C[C@H]1OC(C)=O | inconclusive: 22.4 µM [activator, single point] |
| COc1cc(/C=C(/C)[N+](=O)[O-])ccc1OCc1ccccc1Cl | inconclusive: 3.55 µM [activator, single point] |
| Cc1cccn2c(=O)c(C=Nc3ccccc3)c(NCc3ccco3)nc12 | inconclusive: 2.24 µM [activator, full curve, poor fit] |
| CC(=O)C1CCC2C3CCC4CC(O)CCC4(C)C3CCC12C#N (stereo not given) | inactive |
| COc1ccc(CN2C(=O)NC(=O)/C(=C/c3ccc([N+](=O)[O-])s3)C2=O)cc1 | inactive |
| O=c1nc(/C=C/c2ccc(Cl)cc2Cl)cc(C(F)(F)F)[nH]1 | inconclusive: 17.8 µM [activator, single point] |

| Structure (SMILES) | Potency |
| --- | --- |
| CCn1c(P(C)(=O)O)nc2cc(NC(=O)c3ccccc3F)ccc21 | inactive |
| Cn1c(O)c(C=NCc2cccs2)c(=O)n(C)c1=O | inactive |
| CC/C(=N\NC(N)=O)c1c(O)[nH]c(=O)[nH]c1=O | inactive |
| CN(C)CC1Oc2ccccc2OC1(O)c1ccccc1 (stereo not given) | inconclusive: 3.98 µM [activator, single point] |
| CC1(CCl)CN1S(=O)(=O)c1ccccc1 (stereo not given) | inconclusive: 31.6 µM [activator, single point] |
| CCN1CCN(c2nc3ccccc3s2)CC1 | inactive |
| CN(C)c1ccc([N+](=O)[O-])c([N+](=O)[O-])c1 | active: 11.2 µM |
| CCOc1cc(C=C2C(=O)NC(=O)NC2=O)ccc1OS(=O)(=O)c1ccccc1 | inactive |
| O=C(O)c1ccccc1SCC(=O)N1c2ccccc2Sc2ccccc21 | inconclusive: 35.5 µM [activator, partial curve, poor fit] |
| CCCCn1c(NC(=O)c2ccco2)c(C(=O)OCC)c2nc3ccccc3nc21 | inconclusive: 22.4 µM [activator, single point] |
| C[C@]12CCC3[C@@H](CC[C@@H]4C[C@H](O)CC[C@]34C)[C@@H]1CCC2=O (stereo not given in full) | inactive |
| Cc1cc(SCC(=O)N/N=C/c2ccco2)nc2ccccc12 | inconclusive: 1.41 µM [activator, full curve, poor fit] |
| Cc1cccc(N2C(=O)/C(=C/N3CCN(C(=O)c4ccco4)CC3)C(=O)NC2=S)c1 | inactive |
| O=C1C=C2C=C[C@@H]3CC2(O1)[C@H]1CCCCN31 | inconclusive: 17.8 µM [activator, single point] |
| CC(C)c1ccc(N2C(=O)NC(=O)/C(=C/c3cnc(-c4ccccc4)nc3)C2=O)cc1 | inactive |
| CCCCn1c(N)c(C(=O)OCCOC)c2nc3ccccc3nc21 | inactive |
| O=C(CSc1nnc(NC(=O)c2cc(Br)ccc2Cl)s1)NCC1CCCO1 (stereo not given) | inconclusive: 11.2 µM [activator, partial curve, poor fit] |
| Cc1[nH]nc2c1C1(CCC(c3ccccc3)CC1)C(C#N)=C(N)O2 (stereo not given) | inconclusive: 20 µM [activator, single point] |
| CC(C)N(C(=O)CCl)c1ccccc1 | inconclusive: 17.8 µM [activator, partial curve, poor fit] |
| C=CCN1C(=O)NC(=O)/C(=C/c2ccc(OC)c(CSc3ccccn3)c2)C1=O | inconclusive: 15.8 µM [activator, single point] |
| O=c1[nH]c(=S)[nH]c(O)c1N=Nc1cc2c(cc1[N+](=O)[O-])OCO2 | inconclusive: 31.6 µM [activator, single point] |
| Cc1ccc(C(=O)NC2CC3CCC(C2)N3)cc1 (stereo not given) | inactive |
| Cc1ccc(N2C(=O)NC(=O)/C(=C\C=C\c3ccco3)C2=O)cc1 | inconclusive: 25.1 µM [activator, single point] |
| Nc1cc(Cl)c2nonc2c1[N+](=O)[O-] | inconclusive: 11.2 µM [activator, partial curve] |

| Structure (SMILES) | Potency |
| --- | --- |
| O=c1[nH]c(=S)[nH]c(O)c1N=Nc1ccc(S(=O)(=O)N2CCc3ccccc32)cc1 | active: 8.91 µM |
| O=C1NC(=O)N(c2ccccc2)C(=O)/C1=C/c1coc2ccc(O)cc2c1=O | inactive |
| COc1cc(C=C2C(=O)NC(=O)NC2=O)ccc1OS(=O)(=O)c1ccccc1[N+](=O)[O-] | inconclusive: 15.8 µM [activator, single point] |
| Cc1cccc(N2C(=O)NC(=O)/C(=C\C=C\c3ccco3)C2=O)c1 | inconclusive: 31.6 µM [activator, single point] |
| CN1C(=O)N(C)C(=O)C2(Cc3c(nc4ccccn4c3=O)N3CCc4ccccc4C32)C1=O (stereo not given) | inconclusive: 12.6 µM [activator, partial curve, poor fit] |
| CN(C)C(=O)Oc1c(Cl)cc(Cl)c2cccnc12 | inactive |
| O=C1c2ccccc2-c2cccc3cccc1c23 | inconclusive: 11.2 µM [activator, partial curve, poor fit] |
| O=c1[nH]c(=O)n(C2CCCCCC2)c(O)c1C=NC1CCN(Cc2ccccc2)CC1 | inactive |
| CCCCN1C(=O)NC(=O)C2(Cc3c(nc4ccccn4c3=O)N3CCc4ccccc4C32)C1=O (stereo not given) | inconclusive: 12.6 µM [activator, partial curve] |
| O=c1c2ccccc2[se]n1-c1ccccc1 | inconclusive: 35.5 µM [activator, single point] |
| O=C(CCc1nnc2ccc(NCc3ccccc3)nn12)N1CCC2(CC1)OCCO2 | inactive |
| COc1ccc(CC2C(=O)NC(C)C(=O)N(C)C3C(=O)N(C)C(Cc4ccc(O)c(c4)Oc4ccc(cc4)C3O)C(=O)NC(C)C(=O)NC(C)C(=O)N2C)cc1 (stereo not given) | inactive |
| O=c1[nH]sc2cc(F)ccc12 | inconclusive: 17.8 µM [activator, single point] |
| O=C1C=CC2C3C(=O)N(c4ccccc4)C(=O)C3C1N2Cc1ccccc1 (stereo not given) | inconclusive: 5.62 µM [activator, single point] |
| Nc1nnc(Sc2ncccc2[N+](=O)[O-])s1 | inconclusive: 28.2 µM [activator, partial curve, poor fit] |
| O=c1[nH]c(=S)[nH]c(O)c1N=Nc1cccc(S(=O)(=O)N2CCOCC2)c1 | inconclusive: 28.2 µM [activator, single point] |
| O=c1[nH]c(O)c(N=Nc2ccc([N+](=O)[O-])cc2)c(=O)[nH]1 | inconclusive: 5.62 µM [activator, single point] |
| Oc1ccccc1-[n+]1c(-c2ccccc2)cc(-c2ccccc2)c(O)c1-c1ccccc1 | inactive |
| C=CC[C@@H](CC/C=C/C=C/CC/C=C\[C@@H]1CSC([C@@H]2C[C@@H]2C)=N1)OC | inconclusive: 35.5 µM [activator, single point] |
| Cc1cc2nc(-c3cccc(Br)c3)c(Cc3cccc(Cl)c3)n2c(C)c1Br | inconclusive: 20 µM [activator, single point] |
| CSCCC(c1nnnn1Cc1ccccc1)N1CCC(n2c(=O)[nH]c3ccccc32)CC1 (stereo not given) | inactive |
| COc1cc2c3c(c1OC)Oc1ccc(cc1)C[C@H]1c4c(cc(OC)c(OC)c4Oc4ccc(cc4)C[C@@H]3N(C)CC2)CCN1C | inactive |

Reference: PubChem BioAssay AID624171 (National Center for Advancing Translational Sciences (NCATS), 2012)
